This passage reports binding signal results from PMC12136788.

First the molecules themselves.
T1: UNK ZnF1-3 (human, UniProt Q9C0B0 31-174)
T1 sequence: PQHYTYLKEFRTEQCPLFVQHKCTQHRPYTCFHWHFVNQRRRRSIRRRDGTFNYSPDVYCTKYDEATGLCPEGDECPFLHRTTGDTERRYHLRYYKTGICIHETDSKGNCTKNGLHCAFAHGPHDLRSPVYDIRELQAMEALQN

B1: chr4:144460044:144460045:+_ENSG00000153147_ENST00000283131|hu_mus|hu_hu_hu_mus_False|18_98 (ssRNA)
RNA: GGGAGUUCUACAGUCCGACGAUCACGGUCCAUAGCCUGAAGAUCUACUUGCGGAUUCCAAUCUGAGUCAUAUAAAAUGACUACAUCAGCAGUUGCAAGAUUGAUGCCCAGACCACCAGCACGCGUGCUUAGCAUAAAUACAAACAACAGAGGAUUGAGCAUCA
B2: 120115652_120115772_1370_3pUTR_ENSG00000163430_ENST00000295633|human|control|control (ssRNA)
RNA: GGGAGUUCUACAGUCCGACGAUCUUGCAAAACAAAUAAACAAAAUAAAACUCAUUGCUAUAUAAGCAAAUACUGGUGAUUUGGCGACUGUAGCAGACACUUGUGUAUACUGAACUCAGCGCUGAAGUGGAGAAGAUGCUGGGACAACAGAGGAUUGAGCAUCA
B3: chr2:216981417:216981418:+_ENSG00000079246_ENST00000392132|hu_hu|hu_hu_hu_mus_True|18_58 (ssRNA)
RNA: GGGAGUUCUACAGUCCGACGAUCCUGAUACUGGUCCUUGCCAGCAAGGGCAUUAUCAGUGCCAUCUGUGCCAUAGAGGACUAAAGCAAUCUCAUCUUUGCUCUCCGAAAAUACCUGUCGCUGUACAAACAUAGUCAUCACUUUCAACAGAGGAUUGAGCAUCA
B4: 37144847_37144967_1003_CDS_ENSG00000170471_ENST00000397040|human|control|control (ssRNA)
RNA: GGGAGUUCUACAGUCCGACGAUCAAAUAUUUGAGGCAGAUGUUUAAGGCAGGGAUACUGAUUCAAUUCUUGCGGCAUUCCGCUCACAUUCAAGAACUGUUCCUGAAAUUUGGGAGUAGAGCUUAUAAUAGCUGGGUUACUCAACAACAGAGGAUUGAGCAUCA
B5: chr1:150204182:150204183:-_ENSG00000143401_ENST00000314136|hu_mus|FALSE|FALSE (ssRNA)
RNA: GGGAGUUCUACAGUCCGACGAUCCAAGCUGGGAAGCCGGGCCAAGGAACUCAACUCCACGUUGGCCAUGCUAAGAAACUCCAGUUCCUUAAAGGUGUCAUUCAGGCCUUCGAUUUCCCCAUUGACACACAAGCAAUUAUCGAGCAACAGAGGAUUGAGCAUCA
B6: chr2:74706439:74706440:+_ENSMUSG00000027099_ENSMUST00000155844|mus_mus|motif|central (ssRNA)
RNA: GGGAGUUCUACAGUCCGACGAUCGUCUGAUCUCAAGCCUUAUCCUCUUAUACCUCUGCAGUCAGCAGCAUAUUGUUGACGGAUUCCAUGUAGGCUUUCAUUUCUGCUUUUUGGACUUCAUCCAACCCAUCACUAAGAGAAUGGCAACAGAGGAUUGAGCAUCA
B7: chr4:144460044:144460045:+_ENSG00000153147_ENST00000283131|hu_mus|hu_hu_hu_mus_False|28_28 (ssRNA)
RNA: B1 RNA with U45A, C108A, C123U
B8: chr3:179287964:179287965:+_ENSG00000136518_ENST00000429709|hu_hu|hu_hu_hu_mus_True|38_88 (ssRNA)
RNA: GGGAGUUCUACAGUCCGACGAUCCUUGAGUGGUGAGAUGGCCUCCAUAUUCUCCCUGGGCACGCGGAGGGCAUUGGUGUCUAUGUAGUAGGUGGGCCCGCCUUGUUUGCCUUUGUCACCAUCAAUCUCCAUCAUUGUACUUCCCAACAGAGGAUUGAGCAUCA
B9: chr12:39756943:39756944:-_ENSG00000139116_ENST00000544797|hu_mus|hu_hu_hu_mus_False|58_88 (ssRNA)
RNA: GGGAGUUCUACAGUCCGACGAUCGGUUUGGCUGUUACCCCCAAGGGAAUCCUGUAGGAGUCUUGUCAGCUUAGAGUCUCUAUAGGGGACAUGGGUGGCUCUCUUGCUCUUGUCCCCCAAGGCGCUGAUUACAUUCCCAAGAGCCAACAGAGGAUUGAGCAUCA
B10: chr2:47387770:47387771:-_ENSG00000143933_ENST00000272298|hu_mus|hu_hu_hu_mus_True|18_28 (ssRNA)
RNA: GGGAGUUCUACAGUCCGACGAUCAAGGUUUAAGGACAAUGACAGUAAGAUAAGGGAAGAAAACAUGGAGGAAUGAAGUCCUAAUUACUAUACAUGCAUAUUUUUUGGACAGUAGGGAGAAACCUUUUUUACAGAUAAGUUACACAACAGAGGAUUGAGCAUCA
B11: chr1:157179356:157179357:-_ENSMUSG00000026469_ENSMUST00000027741|perfect_dup|motif|central (ssRNA)
RNA: GGGAGUUCUACAGUCCGACGAUCCAGGAUGAGACUGAGGUAGAACUCGCUGAAGGCCAGCUUAAGGUCUUUAAUGUUCCGGUGUUGGACACGCUCCUCGUGGGACAGGUGGAACACUGGCUUUCUGCGCUGUCGCAAUGUCGUCAACAGAGGAUUGAGCAUCA
B12: chr11:118639009:118639010:-_ENSG00000110367_ENST00000264018|hu_mus|FALSE|FALSE (ssRNA)
RNA: GGGAGUUCUACAGUCCGACGAUCUUCAAGUAAGGGGAUGAGGUAGGCACCGCUUUUGCCUGUUCCAUUUUUUGCUCUAGCUAAGAUAUCCCUACCAGAUAAAGCAAUGGGAAUGCUCUCCUCCUGGAUAGGAGAUGGUUUUUCCAACAGAGGAUUGAGCAUCA
B13: chr12:70442348:70442349:-_ENSMUSG00000020982_ENSMUST00000021368|mus_hu|FALSE|FALSE (ssRNA)
RNA: GGGAGUUCUACAGUCCGACGAUCAACAGGGUCUCCUUGAGCCUGGGCUUCUUUCACAAUUAACCCAAUUUCUGUCCAAUCUAUCUGGUUAGCUAAAGCACUUCGAACUACCUGAAUGGCUCUGUCAACUAUUUGUAGGUUCAUCAACAGAGGAUUGAGCAUCA
B14: chr1:66480114:66480115:+_ENSMUSG00000015222_ENSMUST00000024639|mus_hu|mus_mus_mus_hu_True|1_28 (ssRNA)
RNA: GGGAGUUCUACAGUCCGACGAUCUGGCCUGUGGCGGAUGUUCUUCAGAGAGCCACAUUUGGAUGUCACAUGGCUUAGGUCUAUUUUCUUGGUAACAAUUUGUACCUGACCCCCCUUAGGCUGGUAUUUGAUGUUGUCAGUUGACAACAGAGGAUUGAGCAUCA

Substitutions are numbered along the chain they refer to. Some of the results follow.

In this assay the target is T1, UNK ZnF1-3. Briefly: nsRBNS (natural sequence RNA bind-n-seq); RBNS binding buffer (assumed for nsRBNS): 25 mM Tris pH 7.5, 150 mM KCl, 3 mM MgCl2, 0.01% Triton X-100, 500 ug/ml BSA, 20 U/ml SUPERase-In, 4 C; UNK is unkempt and MSI1 is Musashi-1; names of the RNAs are library labels; protein concentration not given here; high values mean tight binding.
B1 gave a binding signal of 1.13 enrichment R. As for B2, the figure is 2.45 enrichment R; as for B3, 0.935 enrichment R; as for B4, 1.64 enrichment R.

For the molecule B5, the binding signal was determined as 0.861 enrichment R. As for B6, the figure is 0.6 enrichment R; as for B7, 0.863 enrichment R.

B8 gave a binding signal of 0.671 enrichment R. On to B9, for which the binding signal came out at 0.721 enrichment R. As for B10, the figure is 1.49 enrichment R. As for B11, the figure is 0.832 enrichment R. As for B12, the figure is 0.864 enrichment R; as for B13, 0.564 enrichment R.

Molecule B14 had a binding signal of 0.656 enrichment R.
